According to the supplement of paper PMC10126150:
Values marked as one replicate rest on one cluster of the flow cell; about a third of the high ones do not repeat.

Test system: ATP
Test: switch fluorescence ratio, 500 uM ATP over buffer (Cy3 cluster intensity, sum of 5 cycles each) (fold (ratio)); higher = stronger signal-on switching upon ATP binding; sequences stand for … in TCGTCGGCAGCGTCAGATGTGTATAAGAGACAGTTTTTTTTTTTTTTTTTTTTTTTTT…TC
Conditions: aptamer strand: ATP DNA aptamer (quencher-CACCTGGGGGAGTATTGCGGAGGAAGG + anchor), 100 nM annealed; ATP concentration: 500 uM; one replicate
Procedure, shortened: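 Cy3-labelled switching-strand clusters on a modified Illumina MiSeq flow-cell were annealed to 100 nM quencher-labelled ATP aptamer and imaged first in selection buffer, then after 15 min with 500 uM ATP at 22 °C. NaOH stripping and re-annealing separated each of five buffer/ATP cycles, and clusters outside 100-1000 RFU were excluded. The fluorescence ratio sums target-cycle Cy3 intensity over buffer-cycle Cy3 intensity per cluster and averages it per switch-domain sequence.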
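Also: ATP exposure 15 min at 22 °C before imaging.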

| Sequence | switch fluorescence ratio |
| --- | --- |
| CCGCCCGGGA | 4.88 |
| CCAATAATTT | 0.987 |
| AGTATACCTT | 1.1 |
| TCAAAGCCAG | 0.972 |
| TAACGATATC | 1.1 |
| GGCCCAGGCG | 2.23 |
| GAAAATAGGG | 0.989 |
| TATTTAAAGA | 1.02 |
| ACTTCATTGT | 0.999 |
| TTCTGAATCT | 0.982 |
| AGTCGCGGGG | 1.03 |
| ACTTAGATC | 1.03 |
| ACAGGGGCTT | 1.12 |
| AGAGGTGCGT | 0.981 |
| AATGTTTTCG | 0.989 |
| TAAGCGCTGT | 1.01 |
| TACAGTGGCG | 0.988 |
| GTGCGGAAAA | 0.956 |
| AGGCCAAAGG | 0.92 |
| CACTACAGTT | 1.05 |
| CGAGTGAGGT | 0.991 |
| CATCATACGG | 1.02 |
| ACTTATATGT | 0.948 |

| Sequence | switch fluorescence ratio |
| --- | --- |
| GAATGCTTTT | 1.02 |
| TACCCAAATA | 1.05 |
| GTATATAAAG | 1.01 |
| AAACGGTAGT | 1.03 |
| AGATTTCGAT | 0.991 |
| TACTCAAACG | 0.962 |
| GGAGGGTGTG | 1.02 |
| TATGCTTTCA | 1.03 |
| AGTTTGCGTC | 1.01 |
| AGAGCCTAA | 1.05 |
| CGCCCAGAAT | 0.974 |
| ATCTACTCTT | 1 |
| CTTAAGTTTT | 0.987 |
| AGTATTCCGG | 0.988 |
| TTTGACCGT | 0.998 |
| TGCTTAGACG | 0.986 |
| AGTGCTCAGT | 0.986 |
| AGTTGTTAAT | 1 |
| GGATAGGCCC | 1 |
| GACGGGGCAA | 1.31 |
| ACAAACTAT | 1.15 |
| TTCACGCGTA | 1.02 |
| CTAGTAATGT | 0.977 |

| Sequence | switch fluorescence ratio |
| --- | --- |
| CTCCTCTTTA | 1.09 |
| AGGTGTCGTG | 0.998 |
| TAAAGTCGAC | 0.955 |
| CATAGATTCG | 0.996 |
| GAACGGCTAT | 1.03 |
| CCCTTAAGCC | 1.19 |
| CCGATTCTCC | 2.22 |
| TACGGACCGG | 1.1 |
| AACGGAGCAT | 3.76 |
| CAATAATGTC | 1.08 |
| GAACCCATGC | 1.24 |
| CCTTGGTGGG | 1.01 |
| ACGTATAAAC | 1.19 |
| CCTTCTGGTG | 2.09 |
| AGTCTGGTGG | 1.19 |
| AGATTGAAAC | 1.03 |
| ACGATCCAGG | 5.36 |
| TTAGCCGAGG | 0.941 |
| GTTTCCGGTG | 1.16 |
| TGGGTCTAAT | 1.02 |
| CCAATTTTCC | 1.09 |
| TGTATAAGAA | 1.02 |
| GTCTCAATTA | 0.963 |

| Sequence | switch fluorescence ratio |
| --- | --- |
| CATTCCCGGA | 0.985 |
| CATTAATTCG | 0.997 |
| TTTATTT | 1.01 |
| GGGTAGAAAT | 0.979 |
| TTAACTTAAA | 0.974 |
| AAGAGGAAGT | 0.995 |
| GCTAAATCAC | 1.17 |
| CGCAACCCGT | 1.48 |
| TCTTATGCAG | 0.944 |
| GTCCTCCCTT | 1.23 |
| TTCTATGCTC | 0.999 |
| CATATCACTG | 1.01 |
| GAAAGTGTTA | 0.996 |
| GTCGTGGAGG | 1.03 |
| AGGAGATTTA | 1.03 |
| GCACCTAACG | 1.34 |
| GTGGCTACCG | 0.963 |
| GATGAGGGC | 0.977 |
| GAGTTTGCAT | 1.01 |
| ACGACAGGAG | 0.95 |
| CCAGACGTGG | 1.01 |
| CGAACGTCTT | 1.06 |
| TGCAGATTGG | 0.999 |

| Sequence | switch fluorescence ratio |
| --- | --- |
| TTTGGTATCT | 0.992 |
| AATGTTCGTA | 0.983 |
| CATCACAAGT | 1.06 |
| AGCTAGGTTT | 0.989 |
| ATATTGCACT | 1.01 |
| GCGTGAAGG | 1.06 |
| GGGTGACCAG | 0.986 |
| TCACGGATT | 0.993 |
| AGCGTAGGTC | 1.12 |
| TGGTCCGTAA | 1.56 |
| ACGGGTCCG | 1.12 |
| CATTCATATT | 1.02 |
| ACGGATATAT | 1.01 |
| GCAGTTTCT | 1.05 |
| GCATTGTGGT | 1.02 |
| TAGAATCGTA | 1.01 |
| CATCTGGAAT | 3.3 |
| TTGCTACCGC | 1 |
| TCACGTACAG | 1.63 |
| TAGTGCCATT | 1.08 |
| ATAGTGCCCA | 1.03 |
| ACTTAGACAT | 1.06 |
| AAAGACAGCT | 1 |

| Sequence | switch fluorescence ratio |
| --- | --- |
| TCCTGTAAGC | 1.06 |
| AAGAGTTGCG | 1.07 |
| GCTGTGGCCA | 0.995 |
| CGCAACGGTT | 1.16 |
| GTTGAACAAG | 0.952 |
| TTGCTTCTGG | 0.943 |
| CAGCACGCGG | 1.01 |
| TTCACTGCCG | 0.933 |
| CATGGTTTGA | 0.977 |
| CGCTTTAAGC | 1.01 |
| ATGTAAGTTG | 1.01 |
| AACGTCTCGG | 1 |
| AATTTGAGTC | 1.02 |
| TCTGGCTCAC | 1.03 |
| CTCATAGCG | 0.98 |
| CGCTGGCCGC | 0.974 |
| AGGGATCCGG | 0.989 |
| TACGAGATCA | 1.02 |
| CTCACTGTCT | 1.03 |
| TGGTTGAGGA | 0.993 |
| CCGCTCTTTG | 1.07 |
| ACATCGTTGG | 0.996 |
| CACGTTGCGG | 0.993 |

| Sequence | switch fluorescence ratio |
| --- | --- |
| AACGTAGTCA | 0.995 |
| GCTGCTGGTT | 0.994 |
| AGGTGTTACA | 0.999 |
| TAGACGGGAG | 0.942 |
| TAAAACGTGT | 1.01 |
| GGGGATCACA | 1.04 |
| TCCCTATATT | 1.36 |
| TAGCAGGTTT | 1.01 |
| GCGGAACTAA | 0.973 |
| ATTATGTAAC | 0.997 |
| CCCGTGGTTG | 1.06 |
| CAGCACACGA | 1.73 |
| GTCATGGCCA | 1.01 |
| GGGAGGGCCA | 1.06 |
| GTGCTCGTTT | 1.02 |
| TTCTCAGCAT | 2.24 |
| TCTCTTTTGT | 0.97 |
| GCACCATATA | 1.03 |
| GACTAAGAGA | 1.01 |
